Assay results as given in PubChem BioAssay AID504332 (National Center for Advancing Translational Sciences (NCATS), 2011).
Screen size: about 350,000 compounds; about 31,000 (8.9%) were called active. This list was built around the results that the source calls inconclusive (neither active nor inactive); the mix of calls is not that of the screen. Calls follow the shape of the dose curve; as a rule, active = well fitted inhibition curve with a large enough effect; inconclusive = small, poorly fitted or top-dose-only effect; inactive = no such curve, though single readings can be large or run the other way. Where the call is inconclusive, the potency comes from a doubtful curve fit.

What follows are compounds tested against Histone-lysine N-methyltransferase EHMT2 (Homo sapiens) (UniProt Q96KQ7) (assay: qHTS Assay for Inhibitors of Histone Lysine Methyltransferase G9a). Conditions: G9a H3K9 monomethylation, AlphaScreen, 2 h; activity, negative = inhibition: at 59 µM (top of the series) unless noted.
Sequence of UniProt Q96KQ7 (Q96KQ7 whole entry, looked up): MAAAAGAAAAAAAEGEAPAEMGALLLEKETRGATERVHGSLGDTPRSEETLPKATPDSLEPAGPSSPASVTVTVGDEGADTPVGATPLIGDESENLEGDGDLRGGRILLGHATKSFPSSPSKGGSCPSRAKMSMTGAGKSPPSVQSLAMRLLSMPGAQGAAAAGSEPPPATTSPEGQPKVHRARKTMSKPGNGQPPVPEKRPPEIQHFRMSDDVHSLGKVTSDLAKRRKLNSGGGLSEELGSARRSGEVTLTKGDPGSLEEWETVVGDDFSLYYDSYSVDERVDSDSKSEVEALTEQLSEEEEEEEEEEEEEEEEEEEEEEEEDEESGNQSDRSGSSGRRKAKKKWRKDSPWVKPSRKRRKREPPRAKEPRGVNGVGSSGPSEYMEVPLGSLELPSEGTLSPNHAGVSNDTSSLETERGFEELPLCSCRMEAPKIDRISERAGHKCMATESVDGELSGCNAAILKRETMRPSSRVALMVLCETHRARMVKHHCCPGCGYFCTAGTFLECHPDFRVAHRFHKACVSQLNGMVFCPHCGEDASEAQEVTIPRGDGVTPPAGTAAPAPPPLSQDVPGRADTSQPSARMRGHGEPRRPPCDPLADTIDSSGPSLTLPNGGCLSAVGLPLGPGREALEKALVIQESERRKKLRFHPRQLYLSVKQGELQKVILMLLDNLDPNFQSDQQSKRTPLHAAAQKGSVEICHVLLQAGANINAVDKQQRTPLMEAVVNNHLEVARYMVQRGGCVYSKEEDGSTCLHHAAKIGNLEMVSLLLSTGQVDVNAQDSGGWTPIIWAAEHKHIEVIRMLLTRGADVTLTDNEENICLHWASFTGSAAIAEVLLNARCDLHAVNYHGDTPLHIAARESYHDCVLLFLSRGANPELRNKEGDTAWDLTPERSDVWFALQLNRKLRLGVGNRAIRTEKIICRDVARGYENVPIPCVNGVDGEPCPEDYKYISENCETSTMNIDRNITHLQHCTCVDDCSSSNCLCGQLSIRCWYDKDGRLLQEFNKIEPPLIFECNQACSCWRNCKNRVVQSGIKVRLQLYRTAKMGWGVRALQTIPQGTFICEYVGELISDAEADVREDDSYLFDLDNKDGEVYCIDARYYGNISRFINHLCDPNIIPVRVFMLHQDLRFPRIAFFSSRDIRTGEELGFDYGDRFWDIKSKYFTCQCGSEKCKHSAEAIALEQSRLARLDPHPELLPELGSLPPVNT
Summary of the method: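 Quantitative HTS format: methyltransferase activity on a biotin-tagged H3K9 peptide is measured by AlphaScreen, using a rabbit anti-monomethyl-H3K9 antibody with streptavidin donor and anti-IgG acceptor beads. Final levels are 20 nM enzyme, 500 nM peptide, 20 uM SAM; 2 h RT.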
% is scaled to controls: 0 for no effect and ±100 for the full control effect; potency is read from the fitted curve at half-maximal effect; tags tell the direction and shape of the fitted curve.
Also: nearly all actives have a fitted effect of over 75% in size.

Compound | Potency | activity, negative = inhibition
Cc1onc(-c2ccccc2Cl)c1C(=O)Nc1ccc(-c2nnc3n2CCCCC3)cc1 | inconclusive: 31.6 µM [inhibitor, single point] | 
O=C(Nc1ccc(F)cc1)c1sccc1SCc1cccc(C(F)(F)F)c1 | inconclusive: 35.5 µM [inhibitor, single point] | 
Cc1sc(NC(=O)CSc2nnc(-c3ccc(F)cc3)o2)c(C#N)c1C | inconclusive: 89.1 µM [inhibitor, single point] | 
COc1ccc(Cl)cc1C(=O)NC(C)C |  | inactive: 19.1% [at 102 µM]
CSc1ccc(Cl)c(C(=O)Nc2ccc(N3CCOCC3)cc2)c1 | active: 50.1 µM | 
C/C(=N/Nc1ccc(C(=O)O)cc1)c1ccc(O)c(O)c1O | active: 3.55 µM | 
COc1ccc(S(=O)(=O)NC(C)C)cc1C(=O)N1CCOCC1 |  | inactive: 19.3% [at 102 µM]
CCc1nn(-c2ccccc2)c2nc(-c3ccccc3OC)c3cc(OC)c(OC)cc3c12 |  | inactive: 20.4%
CN(C)c1ccc(/C=N/Nc2cc(N3CCOCC3)nc(N3CCOCC3)n2)cc1 | inconclusive: 89.1 µM [inhibitor, partial curve, poor fit] | 
COc1cc(/C=N/O)cc(Br)c1OCC(=O)NCc1ccccc1 | inconclusive: 11.2 µM [inhibitor, partial curve, poor fit] | 
CCOC(=O)c1scc(-c2ccccc2)c1S(=O)(=O)Nc1ccccc1F | inconclusive: 17.8 µM [inhibitor, single point] | 
Clc1cccc(N2CCN(c3ncnc4c3nc3n4CCCCC3)CC2)c1 | inconclusive: 15.8 µM [inhibitor, partial curve, poor fit] | 
CCCc1nn2c(=O)cc(COC(=O)c3cccc(NC(=O)COc4ccc(F)cc4)c3)nc2s1 |  | inactive: -5.71% [at 12.7 µM]
COc1ccc(OCCCC(=O)Nc2cc([N+](=O)[O-])ccc2C)cc1 | inconclusive: 2.24 µM [inhibitor, full curve, poor fit] | 
CC(C)c1ccc(C2N3CC4(C)CN2CC(c2ccccc2)(C3)C4=O)cc1 (stereo unspecified) |  | inactive: -37%
CN(CCc1ccccn1)Cc1ccc(Cl)c(Cl)c1 | inconclusive: 25.1 µM [inhibitor, full curve, poor fit] | 
CCOC(=O)CSc1ccc(S(=O)(=O)N(C)C2CCCCC2)cc1[N+](=O)[O-] | inconclusive: 39.8 µM [inhibitor, single point] | 
Nc1ccc(S(=O)(=O)NCc2ccccn2)cc1 |  | inactive: 11.2% [at 2.33 µM]
CCc1ccc(NC(=O)c2cc(C(C)=O)n3ccccc23)cc1 |  | inactive: 1.28%
O=C(O)c1cccc(S(=O)(=O)Nc2ccc(OCc3ccccc3)cc2)c1 | inconclusive: 89.1 µM [inhibitor, single point] | 
COc1cc(CCc2ccc3c(c2)OCO3)oc(=O)c1 | inconclusive: 1.41 µM [inhibitor, single point] | 
CCc1cc(=O)oc2cc(OCC(=O)N3CCC(C(=O)O)CC3)ccc12 | inconclusive: 1.58 µM [inhibitor, single point] | 
Cc1cc(C)cc(C(=O)NC(CC(N)=O)c2ccc(NC3CCCC3)c([N+](=O)[O-])c2)c1 (stereo unspecified) | inconclusive: 79.4 µM [inhibitor, single point] | 
COc1ccc(NC(=O)CCOc2ccccc2)cc1 | inconclusive: 39.8 µM [inhibitor, full curve, poor fit] | 

Compound | Potency | activity, negative = inhibition
Cc1cc(C)c(Cn2c3ccccc3c3cnn(CC(=O)NC4CCC(C)CC4)c(=O)c32)c(C)c1 (stereo unspecified) |  | inactive: 14.8%
Cc1nc(-c2ccc(Cl)cc2)sc1CCNC(=O)C(=O)Nc1ccc(F)cc1F |  | inactive: -0.96%
Cc1ccccc1-n1c(SCC(=O)Nc2ccc(Cl)cc2F)nnc1-c1cc2occc2n1C | inconclusive: 10 µM [inhibitor, partial curve, poor fit] | 
O=[N+]([O-])c1ccccc1OCCCNCc1ccccc1 | inconclusive: 31.6 µM [inhibitor, single point] | 
COc1ccc(N2CC(C(=O)Nc3nnc(SCC(=O)NC(C)(C)C)s3)CC2=O)cc1 (stereo unspecified) | inconclusive: 35.5 µM [inhibitor, partial curve] | 
CCN1C(=O)/C(=C2/Sc3ccccc3N2CCCS(=O)(=O)O)SC1=S | active: 39.8 µM | 
Cc1ccc(S(=O)(=O)c2c(N)n(NC(=O)c3ccccc3C)c3nc4ccccc4nc23)cc1 | inconclusive: 100 µM [inhibitor, single point] | 
COc1cc(/C=N/NC(=O)c2csc3c2CCCC3)cc(OC)c1O | inconclusive: 28.2 µM [inhibitor, single point] | 
O=C1NCCC/C1=N/Nc1ccc(F)cc1 | inconclusive: 50.1 µM [inhibitor, partial curve] | 
COc1cc(C2NC(=O)NC(O)(C(F)(F)F)C2C(=O)c2ccc(Cl)cc2)ccc1O (stereo unspecified) | active: 79.4 µM | 
CCOC(=O)C1CCN(c2ncnc3c2c(-c2ccccc2)cn3-c2cccc(C)c2)CC1 |  | inactive: -31.3%
O=C(CCCOc1ccccc1)NC(=S)Nc1ccccc1 | inconclusive: 79.4 µM [inhibitor, partial curve] | 
Cc1ccc(N(CC(=O)NCCc2ccc(Cl)cc2)S(=O)(=O)N(C)C)cc1 |  | inactive: 25.4%
Cc1cc(C(=O)CN2C(=O)c3ccccc3C2=O)c(C)n1Cc1cccs1 | inconclusive: 28.2 µM [inhibitor, single point] | 
CC1CCCCN1C(=S)NCCc1ccccc1 (stereo unspecified) | inconclusive: 39.8 µM [inhibitor, single point] | 
COc1ccc(-c2cc(C(=O)Nc3ccc(O)cc3)c3ccccc3n2)cc1OC | inconclusive: 56.2 µM [inhibitor, partial curve, poor fit] | 
Cc1ccc(CN2CCc3nc(N4CCN(c5ncccn5)CC4)ncc3C2)cc1 | active: 20 µM | 
O=c1[nH]c(C2CCCN(S(=O)(=O)c3cccc(F)c3)C2)nc2c1nnn2Cc1ccccc1 (stereo unspecified) | inconclusive: 50.1 µM [inhibitor, partial curve, poor fit] | 
Cc1ccc(OCC(=O)Nc2ccc(S(=O)(=O)Nc3cc(C)nc(C)n3)cc2)c(Br)c1 |  | inactive: -34%
CC(NCc1ccc([N+](=O)[O-])cc1)C1COc2ccccc2O1 (stereo unspecified) | inconclusive: 89.1 µM [inhibitor, single point] | 
Cc1ccc(-c2nc3cc(C(C)C)ccc3o2)cc1NC(=O)c1cc2ccccc2o1 |  | inactive: -47.4%
Cc1ccc2c(c1)C1CN(C)CCC1N2C(=S)NC(=O)c1ccc(Br)cc1 (stereo unspecified) | active: 22.4 µM | 
Cc1c(Cl)cccc1NS(=O)(=O)c1c(C(=O)N2CCOCC2)c(C)n(C)c1C |  | inactive: -5.89%
COc1ccc(NC(=O)CSc2nnc(C3CC3)n2C)cc1 |  | inactive: -7.17% [at 102 µM]

Compound | Potency | activity, negative = inhibition
CC(C)c1ccc2c(c1)C(=O)NC(C)(C)C2 |  | inactive: 11% [at 102 µM]
COc1cc(-c2noc(CN3CCN(c4ccccc4)CC3)n2)cc(OC)c1OC | inconclusive: 35.5 µM [inhibitor, single point] | 
O=C(COC(=O)C1CCN(S(=O)(=O)c2c(Cl)cccc2Cl)CC1)NCc1ccco1 | active: 50.1 µM | 
CCOC(=O)C1CCCN(c2nc(C)nc3c2oc2ccccc23)C1 (stereo unspecified) | inconclusive: 35.5 µM [inhibitor, single point] | 
CC(C)c1cc(CNC(=O)c2ccc(OC3CCN(Cc4ccccn4)CC3)cc2)on1 | inconclusive: 89.1 µM [inhibitor, single point] | 
O=C(Nc1cccs1)Nc1cc(C(F)(F)F)ccc1Cl |  | inactive: 4.49%
CC(C)Cn1c(O)c(/C=C2\C=NN=C2c2ccccc2)sc1=S | inconclusive: 22.4 µM [inhibitor, single point] | 
O=S(=O)(c1ccccc1C(F)(F)F)N1CCN(CC(O)COc2ccccc2F)CC1 (stereo unspecified) |  | inactive: -4.27% [at 0.501 µM]
COc1ccc2[nH]c(C)c(CCNc3ccc(C(F)(F)F)cc3[N+](=O)[O-])c2c1 | active: 11.2 µM | 
Cc1ccc(-c2csc3nc4cc(C(=O)NC5CCC(O)CC5)ccc4c(=O)n23)cc1 (stereo unspecified) | active: 0.631 µM | 
O=C(COC(=O)c1cc(-c2cccc3ccccc23)nc2ccccc12)NC1CCS(=O)(=O)C1 (stereo unspecified) | inconclusive: 39.8 µM [inhibitor, single point] | 
O=C(c1ccco1)n1nc(-c2ccccc2)nc1NCc1ccco1 |  | inactive: -26.3% [at 12.7 µM]
Cc1cccc(CSc2ncc(CO)n2Cc2ccc(F)cc2)c1 | inconclusive: 28.2 µM [inhibitor, single point] | 
O=[N+]([O-])c1cc(S(=O)(=O)Nc2cccc(C(F)(F)F)c2)ccc1-n1nnc2ccccc21 | inconclusive: 12.6 µM [inhibitor, partial curve, poor fit] | 
CCOc1ccc(Nc2ccc(N3C(=O)CCC3=O)cc2[N+](=O)[O-])cc1 |  | inactive: -31.9% [at 102 µM]
Cc1ccc(C(=O)C2=C(O)C(=O)N(c3ncccn3)C2c2cccc(Cl)c2)o1 (stereo unspecified) | active: 10 µM | 
C=CCc1ccccc1OCCCCN1CCCC1 | inconclusive: 1.12 µM [inhibitor, single point] | 
COc1ccc(NC(=S)NCc2ccc3c(c2)cc(C)n3C)cc1 | active: 39.8 µM | 
Oc1cccc2cc3cccc(O)c3c(O)c12 | inconclusive: 44.7 µM [inhibitor, partial curve] | 
CC(=O)Nc1ccc(S(=O)(=O)c2cc(O)ccc2O)cc1 | active: 12.6 µM | 
COCCn1c(SCC(=O)Nc2ncc(C)s2)nc2sc3c(c2c1=O)CCC3 |  | inconclusive: -63.7% [inhibitor]
CN(C)c1ccc(/C=C/c2ccc3ccccc3[n+]2C)cc1 | active: 7.94 µM | 
COc1ccc(NC(=O)CSc2ncc3c(n2)-c2cc(Cl)ccc2N(Cc2ccccc2F)S3(=O)=O)cc1 |  | inactive: 2.52%
